# The supplement of paper PMC4604168 (melanoma cell lines)
# The other results are listed elsewhere or left out. Many values rest on one well or one pass, so single values are uncertain.
# Tested on: SkMel30
# Assay: cell count relative to DMSO control; melanoma cells; higher = more viable cells
# Details: library dose: standard library concentration; 72 h
# 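Also: cells treated in 1,536-well plates, then fixed and DAPI-stained, with nuclei counted from automated high-throughput microscope images.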
row,Compound,cell count [%]
1,"CN(c1ncccc1CNc1nc(Nc2ccc3c(c2)CC(=O)N3)ncc1C(F)(F)F)S(C)(=O)=O + Cc1ccc(NC(=O)c2cccc(N(C)C)c2)cc1NC(=O)c1ccc(O)cc1 [ZM336372] (first compound 0.4 µM, partner dose 10 µM)",99.8
2,"C=C(c1ccc(C(=O)O)cc1)c1cc2c(cc1C)C(C)(C)CCC2(C)C [Bexarotene] + Nc1ccn([C@@H]2O[C@H](CO)[C@@H](O)C2(F)F)c(=O)n1 [gemcitabine] (first compound 10 µM, partner dose 0.002 µM)",117
3,"CS(=O)(=O)c1ccc(C(=O)Nc2ccc(Cl)c(-c3ccccn3)c2)c(Cl)c1 [vismodegib] + CS(=O)(=O)CCNCc1ccc(-c2ccc3ncnc(Nc4ccc(OCc5cccc(F)c5)c(Cl)c4)c3c2)o1 [lapatinib] (first compound 5 µM, partner dose 4 µM)",98.1
4,"NC1(c2ccc(-c3nc4ccn5c(=O)[nH]nc5c4cc3-c3ccccc3)cc2)CCC1 + Cc1cc(N2CCOCC2)cc2[nH]c(-c3c(NC[C@@H](O)c4cccc(Cl)c4)cc[nH]c3=O)nc12 [BMS536924] (first compound 2 µM, partner dose 1 µM)",103
5,"C=C(c1ccc(C(=O)O)cc1)c1cc2c(cc1C)C(C)(C)CCC2(C)C [Bexarotene] + Nc1ncn([C@H]2C[C@H](O)[C@@H](CO)O2)c(=O)n1 [decitabine] (first compound 10 µM, partner dose 0.5 µM)",97
6,"NC1(c2ccc(-c3nc4ccn5c(=O)[nH]nc5c4cc3-c3ccccc3)cc2)CCC1 + Cn1c(Nc2ccc(C(F)(F)F)cc2)nc2cc(Oc3ccnc(-c4ncc(C(F)(F)F)[nH]4)c3)ccc21 [CHIR265] (first compound 2 µM, partner dose 0.4 µM)",44.6
7,"CN(c1ncccc1CNc1nc(Nc2ccc3c(c2)CC(=O)N3)ncc1C(F)(F)F)S(C)(=O)=O + C=CCn1c(=O)c2cnc(Nc3ccc(N4CCN(C)CC4)cc3)nc2n1-c1cccc(C(C)(C)O)n1 [MK1775] (first compound 0.4 µM, partner dose 0.1 µM)",106
8,"CCCS(=O)(=O)Nc1ccc(F)c(C(=O)c2c[nH]c3ncc(Cl)cc23)c1F + COc1cc(Nc2ncc(F)c(Nc3ccc4c(n3)NC(=O)C(C)(C)O4)n2)cc(OC)c1OC [Tamatinib] (first compound 0.4 µM, partner dose 2 µM)",95.1
9,"NC1(c2ccc(-c3nc4ccn5c(=O)[nH]nc5c4cc3-c3ccccc3)cc2)CCC1 + CN(C)S(=O)(=O)c1ccc2c(c1)/C(=C/c1cc3c([nH]1)CCCC3)C(=O)N2 [SU6656] (first compound 2 µM, partner dose 2 µM)",85.3
10,"CS(=O)(=O)c1ccc(C(=O)Nc2ccc(Cl)c(-c3ccccn3)c2)c(Cl)c1 [vismodegib] + NC(=O)Nc1cc(-c2cccc(F)c2)sc1C(=O)N[C@H]1CCCNC1 [AZD7762] (first compound 5 µM, partner dose 0.1 µM)",100
11,"CCCS(=O)(=O)Nc1ccc(F)c(C(=O)c2c[nH]c3ncc(Cl)cc23)c1F + OCCn1cc(-c2cnc3nnn(Cc4ccc5ncccc5c4)c3n2)cn1 [PF04217903] (first compound 0.4 µM, partner dose 5 µM)",96.3
12,"CS(=O)(=O)c1ccc(C(=O)Nc2ccc(Cl)c(-c3ccccn3)c2)c(Cl)c1 [vismodegib] + CC(=O)c1c(C)c2cnc(Nc3ccc(N4CCNCC4)cn3)nc2n(C2CCCC2)c1=O [palbociclib] (first compound 5 µM, partner dose 0.2 µM)",76.1
13,"CN(c1ncccc1CNc1nc(Nc2ccc3c(c2)CC(=O)N3)ncc1C(F)(F)F)S(C)(=O)=O + CS(=O)(=O)CCNCc1ccc(-c2ccc3ncnc(Nc4ccc(OCc5cccc(F)c5)c(Cl)c4)c3c2)o1 [lapatinib] (first compound 0.4 µM, partner dose 4 µM)",91
14,"CN(c1ncccc1CNc1nc(Nc2ccc3c(c2)CC(=O)N3)ncc1C(F)(F)F)S(C)(=O)=O + Cn1c(Nc2ccc(C(F)(F)F)cc2)nc2cc(Oc3ccnc(-c4ncc(C(F)(F)F)[nH]4)c3)ccc21 [CHIR265] (first compound 0.4 µM, partner dose 0.4 µM)",51
15,"CS(=O)(=O)c1ccc(C(=O)Nc2ccc(Cl)c(-c3ccccn3)c2)c(Cl)c1 [vismodegib] + Cn1c(Nc2ccc(C(F)(F)F)cc2)nc2cc(Oc3ccnc(-c4ncc(C(F)(F)F)[nH]4)c3)ccc21 [CHIR265] (first compound 5 µM, partner dose 0.4 µM)",54.6
16,"CS(=O)(=O)c1ccc(C(=O)Nc2ccc(Cl)c(-c3ccccn3)c2)c(Cl)c1 [vismodegib] + O=C(CCCCCCC(=O)Nc1ccccc1)NO [vorinostat] (first compound 5 µM, partner dose 0.4 µM)",61.5

row,Compound,cell count [%]
1,"CS(=O)(=O)c1ccc(C(=O)Nc2ccc(Cl)c(-c3ccccn3)c2)c(Cl)c1 [vismodegib] + Cc1cc(Nc2cc(N3CCN(C)CC3)nc(/C=C/c3ccccc3)n2)n[nH]1 [ENMD2076] (first compound 5 µM, partner dose 0.2 µM)",92.6
2,"CS(=O)(=O)c1ccc(C(=O)Nc2ccc(Cl)c(-c3ccccn3)c2)c(Cl)c1 [vismodegib] + OCc1c[nH]c2ccccc12 [Indole-3-carbinol] (first compound 5 µM, partner dose 4 µM)",81
3,"CN(c1ncccc1CNc1nc(Nc2ccc3c(c2)CC(=O)N3)ncc1C(F)(F)F)S(C)(=O)=O + C[C@]1(c2nc3c(C(N)=O)cccc3[nH]2)CCCN1 [Veliparib] (first compound 0.4 µM, partner dose 7 µM)",84.3
4,"C=C(c1ccc(C(=O)O)cc1)c1cc2c(cc1C)C(C)(C)CCC2(C)C [Bexarotene] + Cc1ccc(NC(=O)c2cccc(N(C)C)c2)cc1NC(=O)c1ccc(O)cc1 [ZM336372] (first compound 10 µM, partner dose 10 µM)",107
5,"CCCS(=O)(=O)Nc1ccc(F)c(C(=O)c2c[nH]c3ncc(Cl)cc23)c1F + CC1(C)NC(=O)N(c2ccc([N+](=O)[O-])c(C(F)(F)F)c2)C1=O [nilutamide] (first compound 0.4 µM, partner dose 5 µM)",103
6,"CS(=O)(=O)c1ccc(C(=O)Nc2ccc(Cl)c(-c3ccccn3)c2)c(Cl)c1 [vismodegib] + C[C@@H]1CCN(C(=O)CC#N)C[C@@H]1N(C)c1ncnc2[nH]ccc12 [CP690550] (first compound 5 µM, partner dose 5 µM)",104
7,"NC1(c2ccc(-c3nc4ccn5c(=O)[nH]nc5c4cc3-c3ccccc3)cc2)CCC1 + CN(NC(=O)CC(=O)NN(C)C(=S)c1ccccc1)C(=S)c1ccccc1 [STA4783] (first compound 2 µM, partner dose 0.03 µM)",76.2
8,"CS(=O)(=O)c1ccc(C(=O)Nc2ccc(Cl)c(-c3ccccn3)c2)c(Cl)c1 [vismodegib] + Nc1ccn([C@@H]2O[C@H](CO)[C@@H](O)C2(F)F)c(=O)n1 [gemcitabine] (first compound 5 µM, partner dose 0.002 µM)",132
9,"CCCS(=O)(=O)Nc1ccc(F)c(C(=O)c2c[nH]c3ncc(Cl)cc23)c1F + O=C(CCCCCCC(=O)Nc1ccccc1)NO [vorinostat] (first compound 0.4 µM, partner dose 0.4 µM)",104
10,"CN(c1ncccc1CNc1nc(Nc2ccc3c(c2)CC(=O)N3)ncc1C(F)(F)F)S(C)(=O)=O + Cn1nnc2c(C(N)=O)ncn2c1=O [temozolomide] (first compound 0.4 µM, partner dose 10 µM)",71
11,"CCCS(=O)(=O)Nc1ccc(F)c(C(=O)c2c[nH]c3ncc(Cl)cc23)c1F + COc1ccc(Cl)c(Nc2nc3ccccc3nc2NS(=O)(=O)c2cccc(NC(=O)C(C)(C)N)c2)c1 [XL147] (first compound 0.4 µM, partner dose 4 µM)",77.1
12,"NC1(c2ccc(-c3nc4ccn5c(=O)[nH]nc5c4cc3-c3ccccc3)cc2)CCC1 + Cn1c(=O)n(-c2ccc(C(C)(C)C#N)cc2)c2c3cc(-c4cnc5ccccc5c4)ccc3ncc21 [NVP-BEZ235] (first compound 2 µM, partner dose 0.02 µM)",42.3
13,"NC1(c2ccc(-c3nc4ccn5c(=O)[nH]nc5c4cc3-c3ccccc3)cc2)CCC1 + Cc1nc(Nc2ncc(C(=O)Nc3c(C)cccc3Cl)s2)cc(N2CCN(CCO)CC2)n1 [dasatanib] (first compound 2 µM, partner dose 0.02 µM)",88.7
14,"NC1(c2ccc(-c3nc4ccn5c(=O)[nH]nc5c4cc3-c3ccccc3)cc2)CCC1 + O=C(Nc1cccc(Cl)c1)Nc1ncc(CCNc2ncnc3ccsc23)s1 [SNS314] (first compound 2 µM, partner dose 0.004 µM)",83.9
15,"CCCS(=O)(=O)Nc1ccc(F)c(C(=O)c2c[nH]c3ncc(Cl)cc23)c1F + Cc1ccc(NC(=O)c2cccc(N(C)C)c2)cc1NC(=O)c1ccc(O)cc1 [ZM336372] (first compound 0.4 µM, partner dose 10 µM)",89.2
16,"CCCS(=O)(=O)Nc1ccc(F)c(C(=O)c2c[nH]c3ncc(Cl)cc23)c1F + Nc1nc(F)nc2c1ncn2[C@@H]1O[C@H](CO)[C@@H](O)[C@@H]1O [fludarabine] (first compound 0.4 µM, partner dose 1 µM)",21.7
